{
  "source": "paper PMC5158307",
  "about": "“Substrate specificity characterization for eight putative nudix hydrolases. Evaluation of criteria for substrate identification within the Nudix family” (Proteins, 2016)",
  "biological_target": "T1, B9WTJ0_STRSU (Streptococcus suis, UniProt A0A0H3MW56)",
  "T1 construct": "gene SSUBM407_1338",
  "T1 sequence (A0A0H3MW56 1-205)": "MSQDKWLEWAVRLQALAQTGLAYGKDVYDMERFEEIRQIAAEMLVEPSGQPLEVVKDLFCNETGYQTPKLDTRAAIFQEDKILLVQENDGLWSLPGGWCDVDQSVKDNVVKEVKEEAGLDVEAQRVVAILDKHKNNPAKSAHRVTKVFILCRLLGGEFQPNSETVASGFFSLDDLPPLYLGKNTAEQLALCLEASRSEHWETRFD",
  "experiment": "Pi-sensor plate-reader screen",
  "details": "5 μM substrate, pH 7.6, 37 °C, 1 mM MgCl2",
  "data": [
    {"smiles": "Nc1ncnc2c1ncn2[C@@H]1O[C@H](COP(=O)(O)OP(=O)(O)OP(=O)(O)OP(=O)(O)OP(=O)(O)OC[C@H]2O[C@@H](n3ccc(=O)[nH]c3=O)[C@H](O)[C@@H]2O)[C@@H](O)[C@H]1O", "note": "[Ap5U]", "values": [
      {"measurement": "Pi-sensor plate-reader screen", "result": "B9WTJ0_STRSU catalyzes the hydrolysis of a variety of dinucleotide polyphosphates such as Ap5U and Gp5G."}
    ]},
    {"smiles": "Nc1nc2c(ncn2[C@@H]2O[C@H](COP(=O)(O)OP(=O)(O)OP(=O)(O)OP(=O)(O)OP(=O)(O)OC[C@H]3O[C@@H](n4cnc5c(=O)[nH]c(N)nc54)[C@H](O)[C@@H]3O)[C@@H](O)[C@H]2O)c(=O)[nH]1", "note": "[Gp5G]", "values": [
      {"measurement": "Pi-sensor plate-reader screen", "result": "B9WTJ0_STRSU catalyzes the hydrolysis of a variety of dinucleotide polyphosphates such as Ap5U and Gp5G."}
    ]}
  ]
}
